Laboratory results reported in the supplement of paper PMC4967469.
Lines with a small IC50 respond at low doses; fits outside the tested doses are given as limits. For AUC the same curve is integrated over the 256-fold range of doses and scaled to a fraction; the more sensitive the line, the further below 1. For some assays here: An inferred top dose was derived from the fitted curves, not read from the paper.

Assays:
Test in all cases: Viability of human cancer cell lines after 72 h of drug (GDSC screen)
CCT018159 = compound: CCc1cc(-c2n[nH]c(C)c2-c2ccc3c(c2)OCCO3)c(O)cc1O [CCT018159]; settings: top dose 10 µM; top dose inferred
Procedure: (§1)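 Human cancer cell lines in 384-well plates, medium with 10% serum, drug for 72 h over a 256-fold dose range (nine 2-fold or five 4-fold steps up to the top dose). Adherent lines were fixed and stained with the nucleic acid dye Syto60, suspension lines read with resazurin; signal relative to control wells, capped at 0 and 100%. One two-parameter sigmoid per drug and line, fitted in a mixed model over all curves with the slope shared within a line.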

Vismodegib = compound: CS(=O)(=O)c1ccc(C(=O)Nc2ccc(Cl)c(-c3ccccn3)c2)c(Cl)c1 [Vismodegib]; settings: top dose 10 µM; top dose inferred
Procedure: as §1

OSI-027 = compound: COc1cccc2cc(-c3nc([C@H]4CC[C@H](C(=O)O)CC4)n4ncnc(N)c34)[nH]c12 [OSI-027]; settings: top dose 20 µM
Procedure: as §1

Dimethyloxalylglycine = compound: COC(=O)CNC(=O)C(=O)OC [Dimethyloxalylglycine]; settings: top dose 4000 µM; top dose inferred
Procedure: as §1

TG101348 = compound: Cc1cnc(Nc2ccc(OCCN3CCCC3)cc2)nc1Nc1cccc(S(=O)(=O)NC(C)(C)C)c1 [TG101348]; settings: top dose 10.24 µM
Procedure: as §1

17-AAG = compound: C=CCNC1=C2C[C@@H](C)C[C@H](OC)[C@H](O)[C@@H](C)/C=C(\C)[C@H](OC(N)=O)[C@@H](OC)/C=C\C=C(/C)C(=O)NC(=CC1=O)C2=O [17-AAG]; settings: top dose 1 µM
Procedure: as §1

VX-11e = compound: Cc1cnc(Nc2ccc(F)cc2Cl)nc1-c1c[nH]c(C(=O)N[C@H](CO)c2cccc(Cl)c2)c1 [VX-11e]; settings: top dose 5.12 µM; top dose inferred
Procedure: as §1

BIX02189 = compound: CN(C)Cc1cccc(N=C(c2ccccc2)c2c(O)[nH]c3cc(C(=O)N(C)C)ccc23)c1 [BIX02189]; settings: top dose 20 µM; top dose inferred
Procedure: as §1

UNC1215 = compound: O=C(c1ccc(C(=O)N2CCC(N3CCCC3)CC2)c(Nc2ccccc2)c1)N1CCC(N2CCCC2)CC1 [UNC1215]; settings: top dose 1 µM; top dose inferred
Procedure: as §1

Doxorubicin = compound: COc1cccc2c1C(=O)c1c(O)c3c(c(O)c1C2=O)C[C@@](O)(C(=O)CO)C[C@@H]3O[C@H]1C[C@H](N)[C@H](O)[C@H](C)O1 [Doxorubicin]; settings: top dose 1.024 µM
Procedure: as §1

| Cell Line | AUC (CCT018159) | IC50 (CCT018159) [µM] | AUC (Vismodegib) | IC50 (Vismodegib) [µM] | AUC (OSI-027) | IC50 (OSI-027) [µM] | AUC (Dimethyloxalylglycine) | IC50 (Dimethyloxalylglycine) [µM] | AUC (TG101348) | IC50 (TG101348) [µM] | AUC (17-AAG) | IC50 (17-AAG) [µM] | AUC (VX-11e) | IC50 (VX-11e) [µM] | AUC (BIX02189) | IC50 (BIX02189) [µM] | AUC (UNC1215) | IC50 (UNC1215) [µM] | AUC (Doxorubicin) | IC50 (Doxorubicin) [µM] |
| --- | --- | --- | --- | --- | --- | --- | --- | --- | --- | --- | --- | --- | --- | --- | --- | --- | --- | --- | --- | --- |
| KMOE-2 (acute myeloid leukaemia, suspension) | 0.91 | > 10 | 0.985 | > 10 | 0.252 | 0.267 | 0.435 | 169 | 0.731 | 2.67 | 0.966 | > 1 | 0.648 | 0.78 | 0.938 | > 20 | 0.984 | > 1 | 0.789 | 0.401 |
| KNS-81-FD (glioma, adherent) | 0.869 | > 10 | 0.955 | > 10 | 0.861 | > 20 | 0.681 | 968 | 0.96 | > 10.2 | 0.665 | 0.213 | 0.978 | > 5.12 | 0.965 | > 20 | 0.978 | > 1 | 0.628 | 0.164 |
| KON (head and neck, adherent) | 0.838 | 6.54 | 0.977 | > 10 | 0.961 | > 20 | 0.483 | 225 | 0.942 | > 10.2 | 0.305 | 0.0179 | 0.984 | > 5.12 | 0.987 | > 20 | 0.982 | > 1 | 0.409 | 0.0362 |
| KP-2 (pancreas, adherent) | 0.986 | > 10 | 0.986 | > 10 | 0.506 | 1.3 | 0.376 | 111 | 0.828 | 6.99 | 0.392 | 0.0309 | 0.974 | > 5.12 | 0.972 | > 20 | 0.984 | > 1 | 0.607 | 0.129 |
| KP-3 (pancreas, adherent) | 0.861 | > 10 | 0.984 | > 10 | 0.702 | 5.22 | 0.492 | 236 | 0.781 | 5.13 | 0.727 | 0.317 | 0.946 | > 5.12 | 0.913 | > 20 | 0.982 | > 1 | 0.71 | 0.283 |
| KS-1 (glioma, adherent) | 0.907 | > 10 | 0.979 | > 10 | 0.304 | 0.304 | 0.232 | 33.5 | 0.617 | 1.45 | 0.319 | 0.017 | 0.908 | > 5.12 | 0.864 | > 20 | 0.976 | > 1 | 0.212 | 0.00714 |
| KU812 (chronic myeloid leukaemia, suspension) | 0.939 | > 10 | 0.969 | > 10 | 0.254 | 0.267 | 0.191 | 33.3 | 0.791 | 4.15 | 0.864 | 0.747 | 0.908 | > 5.12 | 0.941 | > 20 | 0.984 | > 1 | 0.421 | 0.0397 |
| KY821 (leukaemia, suspension) | 0.956 | > 10 | 0.981 | > 10 | 0.839 | 11.2 | 0.904 | > 4000 | 0.901 | > 10.2 | 0.88 | 0.808 | 0.906 | > 5.12 | 0.979 | > 20 | 0.99 | > 1 | 0.929 | > 1.02 |
| KYM-1 (rhabdomyosarcoma, adherent) | 0.929 | > 10 | 0.979 | > 10 | 0.61 | 2.38 | 0.691 | 783 | 0.89 | 8.82 | 0.563 | 0.0903 | 0.991 | > 5.12 | 0.991 | > 20 | 0.991 | > 1 | 0.609 | 0.121 |
| KYSE-510 (oesophagus, adherent) | 0.809 | 4.19 | 0.957 | > 10 | 0.957 | > 20 | 0.407 | 145 | 0.978 | > 10.2 | 0.484 | 0.0569 | 0.984 | > 5.12 | 0.984 | > 20 | 0.992 | > 1 | 0.277 | 0.017 |
| KYSE-520 (oesophagus, adherent) | 0.851 | > 10 | 0.971 | > 10 | 0.684 | 4.91 | 0.634 | 668 | 0.842 | > 10.2 | 0.634 | 0.166 | 0.947 | > 5.12 | 0.953 | > 20 | 0.966 | > 1 | 0.645 | 0.186 |
| L-363 (myeloma, suspension) | 0.934 | > 10 | 0.967 | > 10 | 0.37 | 0.579 | 0.405 | 143 | 0.704 | 2.19 | 0.849 | 0.602 | 0.968 | > 5.12 | 0.945 | > 20 | 0.99 | > 1 | 0.757 | 0.309 |
| L-1236 (Hodgkin lymphoma, suspension) | 0.902 | 9.46 | 0.992 | > 10 | 0.404 | 0.714 | 0.803 | 1630 | 0.674 | 1.8 | 0.745 | 0.274 | 0.992 | > 5.12 | 0.955 | > 20 | 0.987 | > 1 | 0.878 | 0.761 |
